Measurements as given in the supplement of paper PMC12067093, “Discovery and optimisation of a covalent ligand for TRIM25 and its application to targeted protein ubiquitination” (Chemical Science, 2025).
About 21,000 targets were measured; listed, in parts, are those with the largest changes and a random draw of the rest.

Compound: CC1Cc2ccccc2N1C(=O)C1CCCN(C1)C(=O)CCl (mixture of isomers) [TRIM25 ligand 11 (diastereomer mixture)]
Test: probe-labelled cysteine peptide fold change vs DMSO (competition) (log2 fold change); higher = less target engagement (more negative = stronger competition)
Conditions: THP-1, incubation time: 4 h
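Note: competitive chemoproteomic profiling in live THP-1 cells with an iodoacetamide desthiobiotin (IA-DTB) probe, comparing probe-labelled peptide intensities in compound-treated cells against DMSO-treated controls.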

Chain of UniProt Q96KP1 (Q96KP1 whole entry, looked up): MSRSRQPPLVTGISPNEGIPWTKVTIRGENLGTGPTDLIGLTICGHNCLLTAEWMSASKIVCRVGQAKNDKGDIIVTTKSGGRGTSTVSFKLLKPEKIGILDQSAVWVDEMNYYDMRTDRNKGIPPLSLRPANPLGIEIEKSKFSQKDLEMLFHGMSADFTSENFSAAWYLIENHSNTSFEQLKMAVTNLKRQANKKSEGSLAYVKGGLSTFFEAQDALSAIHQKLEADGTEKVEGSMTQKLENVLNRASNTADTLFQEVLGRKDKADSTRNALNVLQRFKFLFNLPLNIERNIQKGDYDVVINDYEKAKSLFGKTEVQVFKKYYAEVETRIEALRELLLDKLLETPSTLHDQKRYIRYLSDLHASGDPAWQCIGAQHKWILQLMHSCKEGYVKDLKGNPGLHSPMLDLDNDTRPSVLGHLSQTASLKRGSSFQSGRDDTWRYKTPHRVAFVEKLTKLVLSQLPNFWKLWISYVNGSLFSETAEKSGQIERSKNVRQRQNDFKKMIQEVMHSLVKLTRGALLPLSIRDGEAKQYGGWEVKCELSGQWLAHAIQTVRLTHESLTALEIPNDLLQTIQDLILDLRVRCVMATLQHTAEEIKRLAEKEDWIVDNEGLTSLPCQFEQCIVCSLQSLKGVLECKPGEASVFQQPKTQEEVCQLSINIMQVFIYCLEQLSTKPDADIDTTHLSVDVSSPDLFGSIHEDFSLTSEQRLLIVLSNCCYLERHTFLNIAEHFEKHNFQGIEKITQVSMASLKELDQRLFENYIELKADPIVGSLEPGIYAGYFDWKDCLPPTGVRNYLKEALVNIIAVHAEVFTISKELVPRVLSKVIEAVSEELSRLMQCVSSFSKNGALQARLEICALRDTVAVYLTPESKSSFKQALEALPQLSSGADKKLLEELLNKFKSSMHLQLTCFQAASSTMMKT
Chain of UniProt P34913 (P34913 whole entry, looked up): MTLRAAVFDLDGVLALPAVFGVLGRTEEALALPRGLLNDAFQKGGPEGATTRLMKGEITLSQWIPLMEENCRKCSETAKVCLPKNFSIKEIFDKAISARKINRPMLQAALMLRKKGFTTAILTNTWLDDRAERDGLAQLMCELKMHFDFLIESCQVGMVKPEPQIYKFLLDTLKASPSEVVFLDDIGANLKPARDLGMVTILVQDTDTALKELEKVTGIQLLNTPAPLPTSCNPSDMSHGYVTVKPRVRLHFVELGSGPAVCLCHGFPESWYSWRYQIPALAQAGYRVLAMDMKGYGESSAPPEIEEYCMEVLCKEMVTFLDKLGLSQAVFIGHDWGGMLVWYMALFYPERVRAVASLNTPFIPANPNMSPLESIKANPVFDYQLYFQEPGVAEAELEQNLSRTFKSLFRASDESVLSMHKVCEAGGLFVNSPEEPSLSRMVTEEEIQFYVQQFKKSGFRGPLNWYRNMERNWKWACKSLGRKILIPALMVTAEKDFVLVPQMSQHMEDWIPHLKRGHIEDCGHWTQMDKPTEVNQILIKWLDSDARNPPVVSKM
Chain of UniProt Q9GZT9 (Q9GZT9 whole entry, looked up): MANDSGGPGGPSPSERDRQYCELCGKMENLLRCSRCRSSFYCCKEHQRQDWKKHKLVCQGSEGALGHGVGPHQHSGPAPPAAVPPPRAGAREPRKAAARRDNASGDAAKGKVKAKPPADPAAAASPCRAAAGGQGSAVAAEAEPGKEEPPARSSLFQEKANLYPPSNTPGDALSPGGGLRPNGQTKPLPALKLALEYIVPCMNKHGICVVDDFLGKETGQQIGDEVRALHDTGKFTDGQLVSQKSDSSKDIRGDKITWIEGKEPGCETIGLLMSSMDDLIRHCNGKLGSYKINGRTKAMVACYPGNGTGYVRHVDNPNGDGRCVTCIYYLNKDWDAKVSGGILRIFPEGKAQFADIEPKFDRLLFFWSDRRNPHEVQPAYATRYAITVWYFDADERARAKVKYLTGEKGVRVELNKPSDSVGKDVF
Chain of UniProt Q5VTE0 (Q5VTE0 whole entry, looked up): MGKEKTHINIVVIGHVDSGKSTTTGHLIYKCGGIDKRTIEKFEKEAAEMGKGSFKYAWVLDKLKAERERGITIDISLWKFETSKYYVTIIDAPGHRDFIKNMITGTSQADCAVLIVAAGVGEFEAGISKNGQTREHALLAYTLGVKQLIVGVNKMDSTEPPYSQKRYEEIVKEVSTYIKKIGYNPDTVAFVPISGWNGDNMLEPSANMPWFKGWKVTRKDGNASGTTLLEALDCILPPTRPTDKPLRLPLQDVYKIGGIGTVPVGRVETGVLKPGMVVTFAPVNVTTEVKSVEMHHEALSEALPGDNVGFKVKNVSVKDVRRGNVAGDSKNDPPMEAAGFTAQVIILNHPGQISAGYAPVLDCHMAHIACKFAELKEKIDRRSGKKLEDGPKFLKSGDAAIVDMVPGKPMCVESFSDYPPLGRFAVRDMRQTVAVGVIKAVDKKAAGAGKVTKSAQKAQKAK
Chain of UniProt Q9UK99 (Q9UK99 whole entry, looked up): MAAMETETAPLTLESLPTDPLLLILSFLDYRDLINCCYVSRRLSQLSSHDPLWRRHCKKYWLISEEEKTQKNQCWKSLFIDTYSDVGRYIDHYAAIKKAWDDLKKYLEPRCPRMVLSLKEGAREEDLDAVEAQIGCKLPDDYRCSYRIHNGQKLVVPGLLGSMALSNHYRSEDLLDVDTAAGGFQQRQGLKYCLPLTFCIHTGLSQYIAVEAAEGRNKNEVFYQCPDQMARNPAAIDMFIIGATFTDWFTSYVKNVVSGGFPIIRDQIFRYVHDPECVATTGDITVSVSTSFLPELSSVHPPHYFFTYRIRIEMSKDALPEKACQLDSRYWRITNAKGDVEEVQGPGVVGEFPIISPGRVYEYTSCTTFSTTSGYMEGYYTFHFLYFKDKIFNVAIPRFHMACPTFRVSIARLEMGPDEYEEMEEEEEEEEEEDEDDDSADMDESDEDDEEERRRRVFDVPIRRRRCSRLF
Chain of UniProt Q9Y324 (Q9Y324 whole entry, looked up): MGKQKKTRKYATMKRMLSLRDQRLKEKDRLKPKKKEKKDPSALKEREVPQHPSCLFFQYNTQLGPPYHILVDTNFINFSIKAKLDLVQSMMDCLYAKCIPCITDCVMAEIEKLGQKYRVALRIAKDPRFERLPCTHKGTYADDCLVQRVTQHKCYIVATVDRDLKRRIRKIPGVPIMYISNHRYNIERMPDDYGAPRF
Chain of UniProt Q96AY2 (Q96AY2 whole entry): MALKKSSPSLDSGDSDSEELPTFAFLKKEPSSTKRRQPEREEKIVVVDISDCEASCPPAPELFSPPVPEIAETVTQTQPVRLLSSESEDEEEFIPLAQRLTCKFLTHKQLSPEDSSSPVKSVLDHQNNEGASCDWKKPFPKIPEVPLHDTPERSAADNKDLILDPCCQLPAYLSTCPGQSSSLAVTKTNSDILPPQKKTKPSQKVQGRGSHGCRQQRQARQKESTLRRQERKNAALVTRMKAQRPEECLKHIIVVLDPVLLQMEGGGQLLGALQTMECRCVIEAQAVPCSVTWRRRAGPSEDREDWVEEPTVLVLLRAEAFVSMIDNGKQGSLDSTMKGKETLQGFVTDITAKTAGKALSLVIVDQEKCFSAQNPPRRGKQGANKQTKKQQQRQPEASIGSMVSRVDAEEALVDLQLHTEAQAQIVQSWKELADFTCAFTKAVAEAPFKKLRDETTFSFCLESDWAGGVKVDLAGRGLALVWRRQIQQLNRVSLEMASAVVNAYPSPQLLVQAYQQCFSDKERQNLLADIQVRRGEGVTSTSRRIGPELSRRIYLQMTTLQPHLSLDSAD
Chain of UniProt Q13451 (Q13451 whole entry, looked up): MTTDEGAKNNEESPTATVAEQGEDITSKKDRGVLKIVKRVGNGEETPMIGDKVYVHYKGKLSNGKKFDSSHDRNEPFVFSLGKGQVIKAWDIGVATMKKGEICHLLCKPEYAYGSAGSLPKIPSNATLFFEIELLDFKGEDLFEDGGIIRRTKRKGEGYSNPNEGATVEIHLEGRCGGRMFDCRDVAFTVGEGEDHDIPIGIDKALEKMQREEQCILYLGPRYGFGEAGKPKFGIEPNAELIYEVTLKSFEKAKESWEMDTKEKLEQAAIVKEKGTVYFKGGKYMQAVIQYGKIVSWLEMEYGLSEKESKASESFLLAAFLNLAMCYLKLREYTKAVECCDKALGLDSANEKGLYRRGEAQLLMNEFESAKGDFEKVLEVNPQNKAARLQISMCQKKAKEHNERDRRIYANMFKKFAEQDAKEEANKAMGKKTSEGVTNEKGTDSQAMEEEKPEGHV
Chain of UniProt Q9NVQ4 (Q9NVQ4 whole entry): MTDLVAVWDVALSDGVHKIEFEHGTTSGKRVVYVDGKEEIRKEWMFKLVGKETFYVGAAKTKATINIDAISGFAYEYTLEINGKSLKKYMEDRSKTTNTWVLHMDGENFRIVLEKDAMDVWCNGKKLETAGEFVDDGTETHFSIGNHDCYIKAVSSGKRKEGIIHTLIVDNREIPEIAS
Chain of UniProt P02679 (P02679 whole entry, looked up): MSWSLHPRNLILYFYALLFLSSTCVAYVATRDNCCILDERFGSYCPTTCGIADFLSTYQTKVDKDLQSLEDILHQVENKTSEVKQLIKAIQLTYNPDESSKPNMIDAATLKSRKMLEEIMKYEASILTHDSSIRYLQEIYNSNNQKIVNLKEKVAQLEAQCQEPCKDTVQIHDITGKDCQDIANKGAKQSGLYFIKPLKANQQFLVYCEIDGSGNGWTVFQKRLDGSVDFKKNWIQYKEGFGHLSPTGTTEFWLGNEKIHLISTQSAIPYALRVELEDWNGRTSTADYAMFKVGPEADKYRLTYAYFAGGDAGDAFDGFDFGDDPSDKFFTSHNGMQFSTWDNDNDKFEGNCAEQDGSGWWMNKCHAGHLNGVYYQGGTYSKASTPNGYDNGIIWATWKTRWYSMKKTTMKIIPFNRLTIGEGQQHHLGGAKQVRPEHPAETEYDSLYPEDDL
Chain of UniProt O75822 (O75822 whole entry, looked up): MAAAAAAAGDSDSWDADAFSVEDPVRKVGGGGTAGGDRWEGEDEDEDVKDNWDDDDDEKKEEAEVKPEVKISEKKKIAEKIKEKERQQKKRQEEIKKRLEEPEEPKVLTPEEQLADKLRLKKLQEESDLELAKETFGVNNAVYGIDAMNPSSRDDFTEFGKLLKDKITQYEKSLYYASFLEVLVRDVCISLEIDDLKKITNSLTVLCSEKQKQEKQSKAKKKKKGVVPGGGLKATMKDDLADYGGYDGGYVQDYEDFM

Target	probe-labelled cysteine peptide fold change (10 µM)	probe-labelled cysteine peptide fold change (50 µM)
ERO1B_Q86YB8_165_YDDSRDHFCELDDERSPAAQYVDLLLNPER (UniProt Q86YB8)	-0.0829	-0.0995
FKBP5_Q13451_103_KGEICHLLCK (UniProt Q13451)	0.175	0.249
EXOC7_Q9UPT5_367_HGPLAGRDDMLDVETDAYIHCVSAFVK (UniProt Q9UPT5)	-0.126	-0.0931
ELL_P55199_411_DCEHGEAAAPAPTVR (UniProt P55199)	-0.312	0.154
FHL1_Q13642_43_FCANTCVECR (UniProt Q13642)	0.0551	0.0815
EXOC2_Q96KP1_373_YLSDLHASGDPAWQCIGAQHK (UniProt Q96KP1)	0.0266	-0.377
FMR1_Q06787_584_VDCNNER (UniProt Q06787)	0.821	0.479
EFTUD2_Q15029_780_EGPLCDELIR (UniProt Q15029)	-0.138	-0.127
ESRRA_P11474_46_CLPGHKEEEDGEGAGPGEQGGGK (UniProt P11474)	-0.071	-0.233
ENOX2_Q16206_216_DDLYEWECK (UniProt Q16206)	0.0541	0.162
EIF3I_Q13347_81_LWDCETGK (UniProt Q13347)	0.0345	-0.0868
FER_P16591-3_26_TCALMFSSEPSTSEVHRDQER (UniProt P16591)	0.171	0.143
ERO1A_Q96HE7_99_RDCAVKPCQSDEVPDGIK (UniProt Q96HE7)	0.066	-0.0613
EFTUD2_Q15029_639_VEESGEHVILGTGELYLDCVMHDLRK (UniProt Q15029)	0.00776	0.0383
EHD4_Q9H223_495_LADCDCDGMLDEEEFALAK (UniProt Q9H223)	0.0484	-0.0124
EEF1A1_P68104_370_NDPPMEAAGFTAQVIILNHPGQISAGYAPVLDCHTAHIACK (UniProt P68104)	-0.0321	-0.0387
EPHX2_P34913_314_GYGESSAPPEIEEYCMEVLCK (UniProt P34913)	0.202	0.106
EIF3B_P55884_700_DRFCQLLWR (UniProt P55884)	0.0444	0.133
EEF1G_P26641_339_FPEELTQTFMSCNLITGMFQR (UniProt P26641)	0.678	-0.499
EFEMP1_Q12805_298_LNCEDIDECR (UniProt Q12805)	0.34	0.306
EPRS_P07814_1309_VACVQVVIIPCGITNALSEEDK (UniProt P07814)	-0.0118	0.0556

Target	probe-labelled cysteine peptide fold change (10 µM)	probe-labelled cysteine peptide fold change (50 µM)
EEF1A1P5_Q5VTE0_363+370_GNVAGDSKNDPPMEAAGFTAQVIILNHPGQISAGYAPVLDCHMAHIACK (UniProt Q5VTE0)	-0.549	-0.652
ELAVL1_Q15717_13_SNGYEDHMAEDCR (UniProt Q15717)	1.56	0.972
EFR3A_Q14156_538_HIYLGCK (UniProt Q14156)	0.217	0.169
FAM120A_Q9NZB2_1088+1103_TCNTNPHLNALSTDSACR (UniProt Q9NZB2)	-0.216	-0.743
EHBP1L1_Q8N3D4_1364_FQDTSQYVCAELQALEQEQR (UniProt Q8N3D4)	0.371	0.594
EFTUD2_Q15029_639_SYPSLTTKVEESGEHVILGTGELYLDCVMHDLRK (UniProt Q15029)	-0.604	-0.158
EIF3J_O75822_188_DVCISLEIDDLKK (UniProt O75822)	0.022	-0.0275
FTSJ1_Q9UET6_295_EIRPQDCPISR (UniProt Q9UET6)	-0.0202	-0.23
EME1_Q96AY2_437_ELADFTCAFTK (UniProt Q96AY2)	-0.0176	0.0515
F2_P00734_564_GDACEGDSGGPFVMK (UniProt P00734)	0.617	0.448
EIF3B_P55884_515_NLFNVVDCK (UniProt P55884)	0.0721	0.16
EEFSEC_P57772_406_AGQATEGHCPR (UniProt P57772)	0.261	0.9
FLNB_O75369_1081_GAGTGGLGLTVEGPCEAK (UniProt O75369)	-0.138	-0.0358
FSCN1_Q16658_121_YFGGTEDRLSCFAQTVSPAEK (UniProt Q16658)	-0.738	-0.364
FAM129B_Q96TA1_194_HCNNGIPEDSK (UniProt Q96TA1)	0.0587	0.107
FBLN1_P23142_556_CLAFECPENYRR (UniProt P23142)	0.59	0.279
EIF5_P55010_102_FVLCPECENPETDLHVNPK (UniProt P55010)	-0.0191	-0.0603
EDC4_Q6P2E9_510_LFCVHTK (UniProt Q6P2E9)	0.0229	0.0623
ERMP1_Q7Z2K6_43_AQEPLVDGCSGGGR (UniProt Q7Z2K6)	-0.0702	-0.135
ELAC2_Q9BQ52_245_DSSLVVAFICK (UniProt Q9BQ52)	-0.114	0.113
FAM83H_Q6ZRV2_789_SLESCLLDLR (UniProt Q6ZRV2)	-0.223	0.666

Target	probe-labelled cysteine peptide fold change (10 µM)	probe-labelled cysteine peptide fold change (50 µM)
ELMSAN1_Q6PJG2_502_CGVEFSEPSLATK (UniProt Q6PJG2)	-0.123	-0.314
FILIP1L_Q4L180_737_IHEYMATEDLICHLQGDHSVLQK (UniProt Q4L180)	0.0105	-0.229
FGG_P02679_34_DNCCILDER (UniProt P02679)	0.567	0.313
EIF2AK4_Q9P2K8_118_HCGEVMIFELAYHVQSFLSEHNKPPPK (UniProt Q9P2K8)	0.231	0.0104
FCF1_Q9Y324_154_CYIVATVDRDLK (UniProt Q9Y324)	-0.153	-0.0908
FBXO3_Q9UK99_324_ACQLDSR (UniProt Q9UK99)	0.0804	0.0189
FBXO45_P0C2W1_98_TDILCNLPSYK (UniProt P0C2W1)	-0.0226	0.569
FCHSD2_O94868_33_HQAECDLLEDMR (UniProt O94868)	-0.00171	-0.0995
FKBP9_O95302_214_GLLGMCVGEK (UniProt O95302)	-0.188	0.15
FSCN1_Q16658_89_EVPGPDCR (UniProt Q16658)	-0.0199	0.201
FUT8_Q9BYC5_266_YATGGWETVFRPVSETCTDR (UniProt Q9BYC5)	0.158	-0.0564
FAM208B_Q5VWN6_873_AHAAEVSFRDPNCLLPFIK (UniProt Q5VWN6)	-0.00307	-0.148
F2_P00734_594_WYQMGIVSWGEGCDR (UniProt P00734)	0.929	0.567
FAM129A_Q9BZQ8_194_FSALLSDCVR (UniProt Q9BZQ8)	-0.0662	-0.00207
EPRS_P07814_660_NSKHEELMLGDPCLK (UniProt P07814)	-0.67	-0.626
FAM208A_Q9UK61_1421_NAPELDCLIR (UniProt Q9UK61)	0.0104	-0.107
F2_P00734_391_KSPQELLCGASLISDR (UniProt P00734)	0.655	0.598
FBXL6_Q8N531_476_DLEQALAAFLSTPGGSHPALCSLNLR (UniProt Q8N531)	0.177	-0.209
FAM120A_Q9NZB2_669_SPQTPELVEALAFREWTCPNLK (UniProt Q9NZB2)	-0.577	-0.435
EHMT2_Q96KQ7_126_GGSCPSR (UniProt Q96KQ7)	0.757	0.0982
ECPAS_Q5VYK3_116_QCELAPTLLTAMEGKPQPQQDSLMHLLIPTLFHMK (UniProt Q5VYK3)	0.139	-0.227

Target	probe-labelled cysteine peptide fold change (10 µM)	probe-labelled cysteine peptide fold change (50 µM)
EIF3CL_B5ME19_568+572_TCAILCHIYHHALHSR<|>EIF3C_Q99613_567+571_TCAILCHIYHHALHSR (UniProt Q99613+B5ME19)	0.432	0.612
EIF3E_P60228_345_LFIFETFCR (UniProt P60228)	0.435	0.338
FASN_P49327_496_GGPEVQQVPAGERPLWFICSGMGTQWR (UniProt P49327)	0.138	0.0338
ECH1_Q13011_171_PVIAAVHGGCIGGGVDLVTACDIR (UniProt Q13011)	0.217	0.648
FARSB_Q9NSD9_195_EYTACELMNIYK (UniProt Q9NSD9)	-0.0943	-0.133
EGLN1_Q9GZT9_323_CVTCIYYLNK (UniProt Q9GZT9)	0.189	0.0838
EIF4G3_O43432_930_NHDEESLECLCR (UniProt O43432)	0.145	0.571
FAIM_Q9NVQ4_149_KLETAGEFVDDGTETHFSIGNHDCYIK (UniProt Q9NVQ4)	0.126	-0.0565
FILIP1L_Q4L180_990_AQTPESCGSLTPER (UniProt Q4L180)	-0.184	-0.0447
FKBP4_Q02790_103+107_VGEVCHITCKPEYAYGSAGSPPK (UniProt Q02790)	0.149	0.134
EPRS_P07814_336+337_GSQFGQSCCLR (UniProt P07814)	-0.0177	-0.139
EPS15_P42566_586_VCSELDNNR (UniProt P42566)	-0.0738	-0.0904
FTO_Q9C0B1_136_HTEAEIAAACETFLK (UniProt Q9C0B1)	-0.0653	-0.153
EIPR1_Q53HC9_83_GVLTTCYNR (UniProt Q53HC9)	0.0806	0.00638
FN3KRP_Q9HA64_11_RELGCSSVR (UniProt Q9HA64)	-0.0218	0.00455
ERO1A_Q96HE7_394_IMDCVGCFK (UniProt Q96HE7)	-0.2	0.124
FUT4_P22083_211_DSAPRPPPDCR (UniProt P22083)	0.0479	0.119
EIF3CL_B5ME19_481_DEAQVCAIIER<|>EIF3C_Q99613_480_DEAQVCAIIER (UniProt Q99613+B5ME19)	0.0299	0.0311
FYN_P06241_404_SANILVGNGLICK (UniProt P06241)	-0.0436	-0.0577
